From the supplement of paper PMC3334620
Over roughly 33,000 sequences, “E-score (-0.5 to 0.5)” has its median near -0.035; the highest 2% begin near 0.35. This is one part of the list.

What follows are sequences tested against T1, Pdr3 (UniProt P33200) (assay: PBM E-score (8-mer binding enrichment) (E-score (-0.5 to 0.5)); higher = stronger / more preferred TF binding; most listed sequences are background and not binding sites). Conditions: protein concentration: 200 nM; construct: GST-full length.
T1 sequence: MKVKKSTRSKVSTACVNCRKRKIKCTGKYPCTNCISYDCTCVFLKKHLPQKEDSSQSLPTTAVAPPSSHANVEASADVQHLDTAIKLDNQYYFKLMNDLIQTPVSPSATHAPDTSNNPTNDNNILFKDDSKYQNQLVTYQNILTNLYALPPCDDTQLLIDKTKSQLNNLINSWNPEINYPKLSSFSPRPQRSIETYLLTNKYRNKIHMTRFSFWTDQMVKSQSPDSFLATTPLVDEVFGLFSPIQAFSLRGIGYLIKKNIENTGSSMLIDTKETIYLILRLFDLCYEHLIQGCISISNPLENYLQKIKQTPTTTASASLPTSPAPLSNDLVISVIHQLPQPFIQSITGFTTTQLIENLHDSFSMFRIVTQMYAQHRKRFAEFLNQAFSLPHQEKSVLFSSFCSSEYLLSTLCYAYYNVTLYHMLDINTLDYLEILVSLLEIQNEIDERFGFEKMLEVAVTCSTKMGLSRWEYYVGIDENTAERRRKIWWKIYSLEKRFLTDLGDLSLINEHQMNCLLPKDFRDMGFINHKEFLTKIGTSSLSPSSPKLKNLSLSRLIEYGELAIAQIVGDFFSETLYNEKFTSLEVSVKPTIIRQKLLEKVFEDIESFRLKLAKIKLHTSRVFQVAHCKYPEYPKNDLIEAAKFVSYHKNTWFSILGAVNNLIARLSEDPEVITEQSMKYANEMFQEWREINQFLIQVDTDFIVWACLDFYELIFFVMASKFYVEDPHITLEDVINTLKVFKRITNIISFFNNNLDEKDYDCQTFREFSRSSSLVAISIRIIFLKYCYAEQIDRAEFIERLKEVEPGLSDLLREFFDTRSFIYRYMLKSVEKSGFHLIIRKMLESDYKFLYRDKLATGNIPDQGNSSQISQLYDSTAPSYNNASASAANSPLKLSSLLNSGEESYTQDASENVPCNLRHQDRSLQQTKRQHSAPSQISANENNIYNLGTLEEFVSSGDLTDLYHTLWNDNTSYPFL
Procedure, shortened: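 Universal all-10-mer Agilent arrays, double-stranded by primer extension on fresh or once-stripped slides, were probed with about 100-200 nM GST-tagged yeast transcription factors made by PURExpress. Fluorescent anti-GST detected bound protein, and masliner normalised the scans. E-scores from the Universal PBM Analysis Suite were given to each ungapped eight-base word pooled with its reverse complement.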

Q: How did the “PBM E-score” value turn out when ATGTCGAC was run?
A: 0.0706

Q: For GCCTCGCC, which “PBM E-score” value is on record?
A: 0.0846

Q: How did the “PBM E-score” value turn out when GTCATGAA was run?
A: 0.0842

Q: With AATGTGAT as the sequence, how does the “PBM E-score” value read?
A: -0.209

Q: Which “PBM E-score” value does the source give for CTCGTCCA here?
A: -0.0423

Q: AAGATCGA was tested. Which “PBM E-score” value did it give?
A: -0.0218

Q: How did the “PBM E-score” value turn out when AGGGTGTA was run?
A: -0.14

Q: AGGCTACT was tested. Which “PBM E-score” value did it give?
A: -0.167

Q: For AGCGCACC, which “PBM E-score” value is on record?
A: 0.0564

Q: GATTCACC was tested. Which “PBM E-score” value did it give?
A: 0.126

Q: For GTCGACCA, which “PBM E-score” value is on record?
A: 0.121

Q: ACGGTCGC was tested. Which “PBM E-score” value did it give?
A: -0.0547

Q: Which “PBM E-score” value does the source give for TCGACGCA here?
A: 0.0524

Q: Which “PBM E-score” value does the source give for CATTAAGC here?
A: -0.137

Q: Which “PBM E-score” value does the source give for CTGTCATC here?
A: -0.169

Q: For GTATATAC, which “PBM E-score” value is on record?
A: -0.115

Q: With AAACTCCG as the sequence, how does the “PBM E-score” value read?
A: 0.3

Q: Which “PBM E-score” value does the source give for ACCTTTAA here?
A: -0.0915

Q: For AGTTAAAA, which “PBM E-score” value is on record?
A: -0.0117

Q: GCCCCTAC was tested. Which “PBM E-score” value did it give?
A: -0.111

Q: How did the “PBM E-score” value turn out when GGATAGCC was run?
A: 0.175

Q: Which “PBM E-score” value does the source give for ACAAGGTA here?
A: -0.0922

Q: How did the “PBM E-score” value turn out when CCGAACAC was run?
A: 0.194

Q: How did the “PBM E-score” value turn out when GTAGTCAA was run?
A: -0.0785

Q: AAGTGTTC was tested. Which “PBM E-score” value did it give?
A: 0.13

Q: How did the “PBM E-score” value turn out when CGGGAACC was run?
A: 0.312

Q: AAGTATGA was tested. Which “PBM E-score” value did it give?
A: 0.0365

Q: TCGTAAGA was tested. Which “PBM E-score” value did it give?
A: -0.098

Q: GTGTAACA was tested. Which “PBM E-score” value did it give?
A: -0.112

Q: For AAGAGAAT, which “PBM E-score” value is on record?
A: 0.153

Q: ATTGCTAC was tested. Which “PBM E-score” value did it give?
A: -0.0505

Q: With CTCTGAGC as the sequence, how does the “PBM E-score” value read?
A: -0.219

Q: With AAAGGACC as the sequence, how does the “PBM E-score” value read?
A: -0.00409

Q: With GGTCCACA as the sequence, how does the “PBM E-score” value read?
A: -0.232

Q: How did the “PBM E-score” value turn out when AACACTCG was run?
A: -0.0431

Q: How did the “PBM E-score” value turn out when CTGGCCCC was run?
A: 0.0884

Q: Which “PBM E-score” value does the source give for CTACTGGC here?
A: -0.0039

Q: CTCCAGCA was tested. Which “PBM E-score” value did it give?
A: -0.205

Q: With ATGACCAA as the sequence, how does the “PBM E-score” value read?
A: -0.0317

Q: With AATAGCGC as the sequence, how does the “PBM E-score” value read?
A: 0.0976

Q: How did the “PBM E-score” value turn out when CTGTCAAG was run?
A: -0.177

Q: Which “PBM E-score” value does the source give for GCTTTACC here?
A: -0.0101

Q: Which “PBM E-score” value does the source give for CCTCAAAA here?
A: -0.0756

Q: CTGACAAG was tested. Which “PBM E-score” value did it give?
A: -0.159

Q: With GGAACCCC as the sequence, how does the “PBM E-score” value read?
A: 0.212

Q: GGCCTACC was tested. Which “PBM E-score” value did it give?
A: 0.0488

Q: How did the “PBM E-score” value turn out when TAACTGGA was run?
A: -0.0126

Q: With GCCGTGCA as the sequence, how does the “PBM E-score” value read?
A: 0.0751

Q: CCTCGTAC was tested. Which “PBM E-score” value did it give?
A: 0.118

Q: How did the “PBM E-score” value turn out when AACTTTTA was run?
A: 0.00331

Q: Which “PBM E-score” value does the source give for ATGAGTAC here?
A: -0.0214

Q: For CCTAGGTC, which “PBM E-score” value is on record?
A: -0.00572

Q: For ATCAAAAG, which “PBM E-score” value is on record?
A: -0.107

Q: How did the “PBM E-score” value turn out when AAGACGCC was run?
A: 0.085

Q: How did the “PBM E-score” value turn out when CTAATATA was run?
A: -0.246

Q: How did the “PBM E-score” value turn out when AGGCCAGG was run?
A: -0.13

Q: For CAGAGTGG, which “PBM E-score” value is on record?
A: -0.184

Q: With AGAAACAG as the sequence, how does the “PBM E-score” value read?
A: -0.109

Q: With AGACGCCT as the sequence, how does the “PBM E-score” value read?
A: -0.25

Q: Which “PBM E-score” value does the source give for GATTACCA here?
A: -0.0218

Q: AAAGTAGT was tested. Which “PBM E-score” value did it give?
A: -0.17

Q: For CATTAGGG, which “PBM E-score” value is on record?
A: -0.244

Q: ACGTAGTG was tested. Which “PBM E-score” value did it give?
A: -0.0399

Q: With TCAATCGA as the sequence, how does the “PBM E-score” value read?
A: 0.0156

Q: With ATCCCAAA as the sequence, how does the “PBM E-score” value read?
A: 0.0137

Q: CCAGGCCC was tested. Which “PBM E-score” value did it give?
A: -0.0292

Q: ATTGCCCC was tested. Which “PBM E-score” value did it give?
A: -0.0313

Q: CCTACTAC was tested. Which “PBM E-score” value did it give?
A: -0.22

Q: ACATCACA was tested. Which “PBM E-score” value did it give?
A: -0.114

Q: For GCGTCAGA, which “PBM E-score” value is on record?
A: -0.153

Q: With GCCGATTA as the sequence, how does the “PBM E-score” value read?
A: 0.0363

Q: How did the “PBM E-score” value turn out when AACTACTA was run?
A: 0.144

Q: With CAGGTTTA as the sequence, how does the “PBM E-score” value read?
A: 0.054

Q: ATGAGAAA was tested. Which “PBM E-score” value did it give?
A: -0.22

Q: With TAAGACGA as the sequence, how does the “PBM E-score” value read?
A: -0.189

Q: How did the “PBM E-score” value turn out when AGCGATGA was run?
A: 0.0631

Q: For AATAAGCC, which “PBM E-score” value is on record?
A: -0.0909

Q: For ACTGGTCT, which “PBM E-score” value is on record?
A: -0.183

Q: CGCAGTTA was tested. Which “PBM E-score” value did it give?
A: 0.0512

Q: With CCGCCTGA as the sequence, how does the “PBM E-score” value read?
A: 0.145

Q: For ATGAGCAT, which “PBM E-score” value is on record?
A: 0.0552

Q: With GAATCACC as the sequence, how does the “PBM E-score” value read?
A: -0.027

Q: GTATCGCA was tested. Which “PBM E-score” value did it give?
A: -0.0133

Q: CGGGACCG was tested. Which “PBM E-score” value did it give?
A: 0.373

Q: Which “PBM E-score” value does the source give for ACTAGACT here?
A: -0.23

Q: How did the “PBM E-score” value turn out when AGTGTCAA was run?
A: -0.0103
